Measured values: PubChem BioAssay AID1508642 (National Center for Advancing Translational Sciences (NCATS), 2021)
Hit rate of the full screen: of about 43,000 compounds, about 200 (0.47%) were called active. Roughly 12% stayed inconclusive and do not appear here. The call rests on the fitted dose curve; in most records, active means well fitted cell-killing curve with a large enough effect; inconclusive means small, poorly fitted or top-dose-only effect, or effect the other way; inactive means flat fitted curve, though single readings scatter. The list shows a part of the results.

Assay: Cell viability qHTS assay in S16 Pmp22-F2sN cells; further: nearly all actives have a fitted effect of over 65% in size
Details: S16 Pmp22-F2sN Schwann cells (luciferase reporters placed in the Pmp22 gene) viability, CellTiter-Glo, 24 h; series mostly up to 57.5 µM; activity change, negative = cytotoxicity: at the top concentration
Text: Assay Provider: Jim Inglese Ph.D. National Center for Advancing Translational Science, National Institutes of Health, Rockville, MD CMT is a heterogeneous group of neurological disorders that affect approximately 1 in 2,500 people. In particular, the most common form of CMT, CMT1A is genetically linked to the duplication of the PMP22 gene which leads to Schwann cell overexpression, thus manifesting itself as a typical case of dose-sensitive diseases. To identify small molecule compounds that can mediate the expression of PMP22 we developed a phenotypic assay screening strategy by utilizing genome editing techniques to construct Schwann cell lines containing novel reporter technology to monitor the transcriptional or translational regulation of PMP22. For high sensitivity we use a bioluminescent reporter system embedded in the 3' UTR of the PMP22 gene (S16(c9) Pmp22-F2sN) to identify compounds that inhibit gene expression. […] We can further discriminate the effect of all transcriptionally active molecules on PMP22 translation or stability with an assay that incorporates a short NLuc peptide (HiBiT) at the C-terminus of expressed PMP22 (S16(f8) PMP22-HiBiT) allowing alpha complementation and luminescence detection of membrane-associated PMP22 protein. These assays were screened against the NCATS Sytravon Library Collection. Miniaturization of these assays to 1536-well plate format for quantitative high throughput screening (qHTS) yielded rich data sets immediately from the qHTS assay (S16(c9) Pmp22-F2sN), when compared with data from a cell viability assay (Cell TiterGlo) to identify compounds that decreased the output signals through cellular toxicity to streamline the selection process of actives for subsequent characterization using the HiBiT assay (S16(f8) PMP22-HiBiT).
Cell viability assay in S16 Pmp22-F2sN cells PROTOCOL TABLE (format as described by Inglese J, Shamu CE and Guy RK. 2007) SEQUENCE No. (e.g., 1, 2, 3, etc.); […] (e.g., Cells, Incubation, Reagent, etc.); VALUE and DESCRIPTION. 1. Cells. Add 500-1,000 cells in 4 uL in growth media (DMEM High Glucose, No Phenol Red media + 10% heat-inactivated FBS + 1% Pen/Strep supplemented media) per well into Greiner 1536-well white/solid bottom high base, TC-treated plates. 2. Compounds. Library compounds and controls added at 23nL per well, transferred by Pin Tool. 3. Incubation. Incubate plates at 37C, 5% CO2, 95% RH for 24 h. 4. Reagent. Add 3uL CellTiter-Glo per well of Greiner 1536-well plates. 5. Incubation. Incubate plates at room temperature for 15 min., protect from light. 6. Detector. FLuc luminescence measured using CCD-based camera (Viewlux). NOTES (numbers refer to Sequence numbers above; values are from representative experiments) 6. Luminescence Read: Clear filter; Exposure = 1 sec, Gain = High, Speed = Slow, Binning = 2X REFERENCES: 1. Inglese J, Shamu CE and Guy RK, Reporting data from high throughput screening of small molecule libraries, Nature Chemical Biology, 2007, 3(8): 438-441. doi.org/10.1038/nchembio0807-438 2. Yasgar A, Shinn P, Jadhav A, Auld DS, Michael S, Zheng W, Austin CP, Inglese J and Simeonov A, Compound Management for Quantitative High-Throughput Screening. J. Assoc. Lab. Auto., 2008, 13: 79-89. doi: 10.1016/j.jala.2007.12.004
On the % scale 0 is the no-effect control and ±100 the full control effect.

SMILES	activity change, negative = cytotoxicity
CCOc1ccc(C(c2c(O)cc(C)n(CCOC)c2=O)N2CCN(c3ccc(F)cc3)CC2)cc1 (stereo not drawn)	inactive: 2.66%
Cc1cccc2cc(-c3nc(-c4cccs4)no3)c(=O)oc12	inactive: 0.0599%
Cc1sc2ncn(CC(=O)N3CCN(c4cccc(Cl)c4)CC3)c(=O)c2c1S(=O)(=O)N1CCC(C)CC1	inactive: -23.3%
CCn1cc(S(=O)(=O)c2cc(C)cc(C)c2)c(=O)c2cc(F)c(N3CCN(c4ccccc4)CC3)cc21	inactive: -0.271%
COc1cccc(C(=O)N2CCc3cc(OC)c(OC)cc3C2COc2ccc3c(C)cc(=O)oc3c2)c1 (stereo not drawn)	inactive: 12.4%
COC(=O)c1ccc(NC(=O)CN(C)S(=O)(=O)c2ccc3c(c2)CCCC(=O)N3)cc1	inactive: -0.436%
COc1ccc(Cl)cc1NC(=O)COc1cccc2c(=O)n(C)ccc12	inactive: -0.629%
CCCCNC(=O)Cn1nc(N2CCN(c3ccccc3OC)CC2)ccc1=O	inactive: 1.02%
O=C(Cn1c(=O)n(CC2CCCO2)c(=O)c2ccccc21)Nc1ccc(F)cc1F (stereo not drawn)	inactive: -1.88%
COc1cc(C)ccc1OCCSc1nc2ccc(NC(=O)c3ccccc3F)cc2s1	inactive: -1.89%
COC(=O)c1cc(NC(=O)Cn2nc(-c3ccccc3)c3c(c2=O)CCCC3)cc(C(=O)OC)c1	inactive: 1.63%
N#C/C(=C/c1ccccc1Cl)c1nc(-c2cc3ccccc3oc2=O)cs1	inactive: 4.55%
CCc1ccc(-c2cc(C)no2)cc1S(=O)(=O)NCc1ccc(OC)cc1	inactive: 1.56%
Fc1ccc(NCc2ccccc2-c2nnc(-c3ccccc3Cl)o2)cc1Cl	inactive: -3.55%
CCc1ccc2c(c1)c(=O)c(S(=O)(=O)c1ccccc1)cn2CC(=O)Nc1cc(C)ccc1C	inactive: 5.77%
COc1cc(NC(=O)CN(C)S(=O)(=O)c2ccc3c(c2)CCCC(=O)N3)cc(OC)c1OC	inactive: 0.934%
COc1ccc(-c2nc3ccccc3o2)cc1NC(=O)COc1c(C)cc(Cl)cc1Cl	inactive: 9.69%
Cc1ccc(CCNC(=O)Cn2ncc3c(=O)oc4ccccc4c32)cc1	inactive: 8.51%
Cc1ccccc1-c1nc(CS(=O)(=O)CC(=O)Nc2c(C)cccc2C)c(C)o1	inactive: 18.2%
CCc1nnc(SC(CC)C(=O)NCCOC)c2cc3occc3n12 (stereo not drawn)	inactive: 2.42%
CN1CCN(C(=O)c2cnn(-c3ccccc3)c2C2CCN(C(=O)OC(C)(C)C)CC2)CC1	inactive: 2.37%
Cc1cccc(NC(=O)CSc2nc(C)cc(C)c2C(=O)Nc2ccc(Cl)cc2)c1	inactive: -12.6%
Cc1ccc(C)c(NC(=O)Cn2cc(S(=O)(=O)N3CCCC3)c(S(=O)(=O)N3CCCC3)c2)c1	inactive: -2.27%
COc1ccc(Cl)cc1NC(=O)c1cc(=O)c2cc(C)cc(C)c2o1	inactive: 1.5%

SMILES	activity change, negative = cytotoxicity
CCc1nn2c(=O)cc(COC(=O)c3cccc(NC(=O)COc4ccccc4F)c3)nc2s1	inactive: -7.79%
CC(C)(C)OC(=O)N1CCC(c2c(C(=O)N3CCN(c4ccccc4F)CC3)cnn2C(C)(C)C)CC1	inactive: 2.82%
COC(=O)c1cc2sc(C)cc2n1Cc1nc(-c2cccc(Br)c2)oc1C	inactive: 7.65%
Cc1cccc(-c2nc3c4ccccc4n(CC(=O)Nc4cccc(F)c4)c(=O)n3n2)c1	inactive: 12.9%
CCc1ccc2oc(C(=O)N(Cc3cccc(Cl)c3)Cc3ccco3)c(C)c2c1	inactive: 19.3%
Cc1cc(C)cc(NC(=O)Cn2c(=O)n(CCC(C)C)c(=O)c3cccnc32)c1	inactive: 1.17%
Cn1c(=O)cc(SCC(=O)NCCc2ccc(Cl)cc2)c2cc(Cl)ccc21	inactive: 20.3%
COc1cccc(CNC(=O)CCCn2c(=O)c3cccn3c3ccc(F)cc32)c1OC	inactive: -5.06%
COc1ccc(N2C(=O)CS(=O)(=O)C23C(=O)N(Cc2ccccc2)c2ccccc23)cc1 (stereo not drawn)	inactive: -4.46%
COc1cccc(-c2nc(S(=O)(=O)c3ccc(C)cc3)c(NCc3ccccc3)o2)c1	inactive: 26.3%
CCN1CCN(c2cc(C)c3cc(NC(=O)c4cc(OC)c(OC)c(OC)c4)ccc3n2)CC1	inactive: -18.5%
CCOc1ccc(-c2nc(CSCC(=O)NCCc3ccccc3)c(C)o2)cc1	inactive: -28.8%
Clc1cccc(N2CCN(c3nc4ccccc4c4nc(-c5ccccc5)nn34)CC2)c1	inactive: 4.87%
COc1ccc(-c2cc(C(C)=O)c(C)n2CCC(=O)Nc2cccc(C)c2C)cc1	inactive: -0.713%
O=C(Cn1c2ncccc2c(=O)n1-c1ccccc1)Nc1cccc(C(F)(F)F)c1	inactive: 6.23%
O=C(CSc1nc2ccccc2c2nc(-c3ccccc3)nn12)Nc1ccc(F)cc1	inactive: -0.484%
Cc1ccc(Cn2c3ccccc3c3cnn(CC(=O)N4CCCCCC4)c(=O)c32)cc1	inactive: 16.7%
Cc1ccc(CN2C(=O)CC(c3ccc(Cl)cc3)c3c(C)nn(-c4nc(C)cc(C)n4)c32)cc1 (stereo not drawn)	inactive: -22%
COc1ccc(-n2nc3c(c2NC(=O)C(=O)NCc2ccccc2)CSC3)cc1	inactive: -4.75%
COc1ccc(N2CCN(C(=O)CCc3nnc4n(C)c(=O)c5sccc5n34)CC2)cc1	inactive: 14.8%
COc1ccc(-n2c(=O)c3ccc(C(=O)NCc4ccc(C)cc4)cc3n(Cc3ccc(F)cc3Cl)c2=O)cc1	inactive: 17.7%
CC1(C)N=C(c2ccc(F)cc2)C(=O)N1CC(=O)Nc1ccccc1Cl	inactive: 2.26%
COC(=O)c1cc2oc(C)cc2n1CC(=O)Nc1ccc(OC)c(OC)c1	inactive: -1.45%
COC(=O)c1ccc(NC(=O)CSc2nccn2Cc2ccc(Cl)cc2)cc1	inactive: 7.76%

SMILES	activity change, negative = cytotoxicity
COC(=O)c1sc(S(=O)(=O)N2CCN(c3ccc(OC)cc3)CC2)c(C(=O)OC)c1C	inactive: 4.97%
COc1ccc(CNC(=O)C(=O)Nc2ccccc2OC)cc1	inactive: -0.385%
Cc1cc(O)c(C(c2ccccc2)N2CCN(c3ccccc3F)CC2)c(=O)n1Cc1ccco1 (stereo not drawn)	inactive: 5.6%
CCC(=O)N1CCc2cc(Br)cc(S(=O)(=O)CCC(=O)NCc3ccc(C)cc3)c21	inactive: 7.84%
COc1cc(NC(=O)CN2C(=O)C(c3ccc(C)cc3)=NC23CCCCCC3)cc(OC)c1	inactive: -7.89%
CC(=O)Nc1c(C)nn(-c2ccccc2)c1N1CCC(C(=O)Nc2ccc(Cl)cc2C)CC1	inactive: -2.27%
COc1ccc(OC)c(NC(=O)CSc2nccn2-c2cc(C)cc(C)c2)c1	inactive: -7.02%
Cc1ccc2oc(=O)c3cc(C(=O)NCc4ccc(Cl)cc4)sc3c2c1	inactive: 19.6%
Cc1ccc(NC(=O)C2CCCN2S(=O)(=O)c2cccc3nsnc23)c(Br)c1 (stereo not drawn)	inactive: -4.49%
Cc1ccc(CN2CCc3nc(N4CCN(c5ccccc5F)CC4)ncc3C2)s1	inactive: -0.836%
COc1ccc(-c2csc3nc(-c4ccc(F)cc4)oc(=O)c23)cc1OC	inactive: 17.8%
Cc1cccc(C)c1NC(=O)CCS(=O)(=O)c1ccc2c(c1)n(C)c(=O)c(=O)n2C	inactive: 4.26%
Cc1cccc(-c2nc(C)c(CCNC(=O)C(=O)Nc3c(C)cc(C)cc3C)s2)c1	inactive: 11.8%
Cc1cc(SCC(=O)NCc2ccccc2Cl)nc(=O)[nH]1	inactive: -0.228%
COC(=O)c1ccccc1NC(=O)Cn1c(=O)cc(-c2ccccc2)c2c(C)nn(C)c21	inactive: 3.17%
CCOC(=O)c1sc2ncn(CC(=O)Nc3cc(C)cc(C)c3)c(=O)c2c1C	inactive: -5.72%
CCN(CC)C(=O)Cn1c(=O)n(CCCCCC(=O)Nc2ccccc2)c(=O)c2sccc21	inactive: 7.11%
O=C(NCc1ccccc1F)c1cc2ccccn2n1	inactive: -16.3%
CCOc1ccc2oc(=O)cc(CN3CCN(C(=O)c4cccc(Cl)c4)CC3)c2c1	inactive: -2.44%
Cc1ccccc1C(=O)Nc1cccc(C(=O)OCc2cc(=O)n3c(C)csc3n2)c1	inactive: -10.5%
COc1ccc(CNC(=O)c2ccc(NC(=O)N3CCSc4ncccc43)cc2)c(OC)c1	inactive: 0.837%
Cc1ccc(C)c(Nc2nn3c(=O)c4ccc(C(=O)N(C)Cc5ccccc5)cc4nc3s2)c1	inactive: -0.834%
COc1ccc(NC(=O)c2cc(C(C)=O)n3ccccc23)cc1Cl	inactive: 14.4%
COc1ccc2c(CNCc3cccs3)c(C(=O)O)n(Cc3cccc(F)c3)c2c1	inactive: -13.6%

SMILES	activity change, negative = cytotoxicity
COC(=O)c1ccccc1NC(=O)c1sc2nc(C)cc(C)c2c1NC(=O)c1ccccc1Cl	inactive: 12.8%
Cc1cc(/C=C(\C#N)C(=O)Nc2ccccc2)c(C)n1-c1ccc(F)cc1	inactive: -1.73%
COc1cc(NC(=O)c2nc(-c3ccc(Cl)cc3)n3c2CCCCC3)cc(OC)c1OC	inactive: -5.58%
O=C(Cc1ccccc1)Nc1sc2c(c1C(=O)Nc1ccccc1Cl)CCCC2	inactive: 8.59%
COc1ccc(CNC(=O)c2cc(C3CC3)nc3c2c(C)nn3-c2cccc(Cl)c2C)cc1	inactive: -0.257%
COc1ccc(OC)c(-c2nnc3n(CCc4ccccc4)c(=O)c4ccccc4n23)c1	inactive: 9.92%
CCn1c(=O)n(-c2ccc3c(c2)OCO3)c2nc(-c3cc(OC)ccc3OC)nc(C(N)=O)c21	inactive: -6.31%
COc1ccc(CNC(=O)Cn2ccc3cc(S(=O)(=O)N4CCCC4)ccc32)c(OC)c1	inactive: -19.2%
CC(CNC(=O)c1ccc2nc(CCc3ccccc3)oc2c1)c1ccccc1 (stereo not drawn)	inactive: 4.1%
COc1ccc(NC(=O)c2ncoc2-c2ccco2)cc1Cl	inactive: -6.16%
CCOC(=O)c1cccc(NC(=O)C2CCN(S(=O)(=O)c3c(C)noc3/C=C/c3ccc(C)cc3)CC2)c1	inactive: 13.1%
CCOC(=O)c1[nH]c(C)c(CCC(=O)NCc2ccc(OC(C)C)cc2)c1C	inactive: -20.8%
COc1ccc(C)cc1NC(=O)C1CCN(S(=O)(=O)c2cccc3nonc23)CC1	inactive: 13.8%
COC(=O)c1ccccc1NC(=O)N(Cc1ccc(C)cc1)Cc1cccn1-c1nnc(N2CCCC2=O)s1	inactive: -0.778%
Cc1cccc(NC(=O)CSc2nnc3c4ccccc4n(C)c3n2)c1	inactive: 6.99%
CCc1ccc(S(=O)(=O)c2cn(CC(=O)Nc3cccc(C)c3)c3ccc(Cl)cc3c2=O)cc1	inactive: -1.03%
Cc1cc(Nc2cccc(O)c2)c2cccc(Br)c2n1	inactive: -5.99%
Cc1sc2ncn(CC(=O)Nc3ccc(C(F)(F)F)cc3)c(=O)c2c1S(=O)(=O)N1CCN(C)CC1	inactive: -17.8%
COc1nnc(-c2ccc(N3CCCCC3)c(NC(=O)c3ccc(Cl)cc3)c2)c2ccccc12	inactive: 3.48%
COc1ccc(-c2cc(C(F)(F)F)nc(SCC(=O)Nc3ccc(C(C)=O)cc3)n2)cc1	inactive: 23.7%
CCOC(=O)C1CCN(c2ncnc3c2c(-c2ccccc2)cn3-c2ccc(C)c(Cl)c2)CC1	inactive: -1.01%
